Usually EC50 stands for the concentration needed to bring the measured effect to its halfway point.

The target of test [1] is T1, dansylated calmodulin (rat, UniProt P0DP30, dansyl group covalently bound to CaM (position not given)).
T1 construct: calmodulin, rat brain, NM_017326; also called D-CaM; dansyl-CaM
The test can be described thus: other fluorescence titration; 12.5 nM D-CaM, ligand added incrementally, enhancement of dansyl emission; 25 mM Tris-HCl, 120 mM KCl, 5 mM NaCl, 2 mM MgCl2, 10 mM EGTA, pH 7.4; no free Ca2+; apparent affinity (EC50 of a Hill fit). To be noted: both partners purified.

Test [2] has as its target T1, dansylated calmodulin. The test can be described thus: other fluorescence titration; 12.5 nM D-CaM, ligand added incrementally, enhancement of dansyl emission; D-CaM binding buffer with 3.9 µM free Ca2+ (9.63 mM Ca2+, 2 mM Mg2+, 10 mM EGTA, pH 7.4); apparent affinity (EC50 of a Hill fit). To be noted: both partners purified.

B1: rat KCa2.2 (SK2) CaM binding domain ([…]) (domain or fragment)
chain: not shown
notes: cDNA from John P. Adelman; also called SK2 CaMBD; source: purified as described [9]; not shown: 6xHis, C-terminal, kept
As for B1, the concentration for a half-maximal effect (EC50) with dansylated calmodulin [1] stood at 13.7 nM; with dansylated calmodulin [2], 9.2 nM.

(Values after publication PMC3904923, “Pivoting between Calmodulin Lobes Triggered by Calcium in the Kv7.2/Calmodulin Complex” (PLoS ONE, 2014).)
